In PubChem BioAssay (Tox21):
Results filed as inconclusive are left out. Unless noted, calls follow the shape of the full dose curve. More than one record can exist for a structure, and the calls need not agree. For part of its entries the source gives two or more results. The other results are left out here. The source may hold further records. Values given together repeat one measurement in other runs, samples, wells, individuals or studies. A tag in brackets gives the origin of a value. Letters count within one entry.

Target: Gonadotropin-releasing hormone receptor (Homo sapiens) (UniProt P30968)
Chain of UniProt P30968 (P30968 whole entry, looked up): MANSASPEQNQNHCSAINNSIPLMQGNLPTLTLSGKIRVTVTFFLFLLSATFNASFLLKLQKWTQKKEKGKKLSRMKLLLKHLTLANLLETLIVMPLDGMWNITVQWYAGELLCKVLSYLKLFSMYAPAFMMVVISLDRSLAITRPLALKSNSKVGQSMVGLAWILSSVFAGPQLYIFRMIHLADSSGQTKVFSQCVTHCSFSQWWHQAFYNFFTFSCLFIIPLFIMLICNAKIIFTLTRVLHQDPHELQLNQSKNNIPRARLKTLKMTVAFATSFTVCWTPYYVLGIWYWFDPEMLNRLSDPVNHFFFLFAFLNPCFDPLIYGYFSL
Assay: Human gonadotropin-releasing hormone receptor (GnRHR) small molecule agonists, calcium flux assay in GnRHR-HEK293 cells (AID 1920063); also: nearly all actives have a fitted effect of over 35% in size
Conditions: calcium flux fluorescence, agonist mode; series mostly up to 57.6 µM
Source text: (§1) National Center for Advancing Translational Sciences [NCATS]
(§2) Division of Preclinical Innovation [DPI]
(§3) U.S. Environmental Protection Agency [EPA]
(§4) National Institutes of Environmental Health Sciences [NIEHS]
(§5) National Toxicology Program [NTP]
(§6) U.S. Food and Drug Administration [FDA]
Gonadotropin-releasing hormone receptor (GnRHR) is a G-protein-coupled receptor (GPCR) and acts (through phospholipase C) to increase intracellular inositol trisphosphate and then release intracellular calcium stores. Cell-based GnRHR-Hek293 calcium influx assay is using HEK293 cells that have been genetically engineered to express the human GnRHR, which activity can be measured by calcium signaling. A compound/drug can activate (agonist) GnRHR that can be monitored by levels of intracellular calcium.
GnRHR-HEK293 cells developed by Codex Corp contain human GnRHR reporter gene, which was stably integrated into HEK 293 cells. The compound activation can be detected by fluorescence intensity via calcium flux assay. This cell line has been used to screen the Tox21 10K compound library to identify GnRHR agonists.
GnRHR-Hek293 cells were dispensed at 1500cells/4uL/well in 1536-well black wall/clear bottom plates using a multidrop dispenser. After the assay plates were incubated at a 37 C/5% CO2 incubator for 18 hours, 4 uL of Calcium Dye Solution was added to each well. The plates were incubated at 37 C for 1 hour. For agonist mode, 23 nL of compounds dissolved in DMSO, positive controls or DMSO only was transferred to the assay plate by a pin tool station. The fluorescence intensity in the plates was measured using FDSS 7000EX kinetic plate reader with a filter set of Ex/Em=480/540 for 3 min at 1 sec intervals. Each test compound was measured at 15 concentrations and in triplicates.
Potency is read from the fitted curve at half-maximal effect.

SMILES | Potency
C=CCO | inactive [sample A] and active: 17.4 µM [sample B]
Nc1ccc(Cl)cc1N | inactive [sample A] and active: 27.5 µM [sample B]
Oc1ccc(Cl)cc1Cc1ccccc1 | active: 35.1 µM [sample A] and inactive [sample B]
COP(=O)(OC)OC | active: 39.2 µM [sample A] and inactive [sample B]
C1CN2CCN1CC2 | inactive [sample A] and active: 38.9 µM [sample B]
COCCl | active: 36 µM [sample A] and inactive [sample B]
O=C1C2CC=CCC2C(=O)N1SC(Cl)(Cl)Cl (centres undefined) | inactive [sample A] and active: 38.3 µM [sample B]

Target: KiSS-1 receptor (Homo sapiens) (UniProt Q969F8)
Chain of UniProt Q969F8 (Q969F8 whole entry, looked up): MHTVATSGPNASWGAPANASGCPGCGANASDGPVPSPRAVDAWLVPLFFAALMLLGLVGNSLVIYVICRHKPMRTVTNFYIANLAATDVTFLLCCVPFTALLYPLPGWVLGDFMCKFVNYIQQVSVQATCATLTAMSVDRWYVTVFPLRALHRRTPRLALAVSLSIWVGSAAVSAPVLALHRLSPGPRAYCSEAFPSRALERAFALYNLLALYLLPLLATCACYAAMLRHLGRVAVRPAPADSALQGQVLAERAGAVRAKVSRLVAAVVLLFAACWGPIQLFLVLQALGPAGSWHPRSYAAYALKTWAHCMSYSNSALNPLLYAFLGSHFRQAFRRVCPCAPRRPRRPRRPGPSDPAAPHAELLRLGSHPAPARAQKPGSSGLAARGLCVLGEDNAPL
Assay: Human kisspeptin (KISS1R) small molecule agonists, calcium flux assay in KISS1R-HEK293 cells (AID 1920064; active = well fitted activation curve with a large enough effect in the repeat runs)
Conditions: KISS1R-HEK293, calcium flux fluorescence, agonist; series mostly up to 76.8 µM
Method in brief: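 HEK293 cells stably expressing human KISS1R were plated 18 h at 37 °C, loaded with calcium dye for 1 h at 37 °C, then given compound by pin tool. Fluorescence (Ex/Em 480/540) was read kinetically for 3 min.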

SMILES | Potency
CCOP(=O)(O)OCC (tested in a mixture with another compound) | inactive [sample A] and active: 15.4 µM [sample B]
COP(=O)(OC)OC | active: 49.4 µM [sample A] and inactive [sample B]
COCCl | active: 45.3 µM [sample A] and inactive [sample B]
O=C1C2CC=CCC2C(=O)N1SC(Cl)(Cl)Cl (centres undefined) | inactive [sample A] and active: 54.1 µM [sample B]

System: not listed separately
Assay: p53 small molecule agonists, cell-based qHTS assay with human liver microsomes (AID 1963577);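 as to activation: p53 response element beta-lactamase reporter cells with liver microsomes plus NADPH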
Conditions: HCT-116 p53RE-bla with human liver microsomes, ratio, 16 h; series mostly up to 66 µM
Source text: as §1, §2, §3, §4, §5, §6
p53, a tumor suppressor protein, is activated following cellular insult, including DNA damage and other cellular stresses. The activation of p53 regulates cell fate by inducing DNA repair, cell cycle arrest, apoptosis, or cellular senescence. The activation of p53, therefore, is a good indicator of DNA damage and other cellular stresses. […] The activation of the reporter gene under culture conditions can be detected by fluorescence intensity.
Tox21 Assay Protocol Summary:
The p53RE-bla cells were dispensed at 4,000cells/3ul/well in 1536-well black-clear bottom plates. After the assay plates were incubated at 37 C, 5% CO2 incubator for 5 hours, 23 nL of compounds dissolved in DMSO, positive controls or DMSO only was transferred to the assay plate. Following compound addition, 3 uL of human liver microsomes (XenoTech, Kansas City, KS) at final concentration of 0.5 mg/mL and 1uL of Beta-Nicotinamide adenine dinucleotide 2-phosphate (NADPH) at final concentration of 0.5 mg/mL were transferred to the assay plate. The plates were incubated at 37 C for 16 hours. 1 uL of LiveBLAzer detection mixture was added to each well and the plates were incubated at room temperature in the dark for 2 h.

SMILES | Potency
C[C@]12CC[C@H]3[C@@H](CC[C@@]45O[C@@H]4C(O)=C(C#N)C[C@]35C)[C@@H]1CC[C@@H]2O | active: 36.3 µM [sample A] and inactive [sample B]
CCOP(=S)(OCC)Oc1cnc2ccccc2n1 | inactive [sample A] and active: 4.58 µM [sample B]
CCOS(=O)(=O)OCC | active: 36.4 µM [sample A] and inactive [sample B]
